# From article PMC4336329 (PLoS ONE, 2015)
# Screen size: about 310,000 compounds; about 14,000 (4.5%) showed an effect of 50% or more. Effects have a minus sign here. This is one part of the list.
# Target: human ether-à-go-go-related gene (hERG) potassium channel (human, UniProt Q12809)
# Assay: primary screen, population patch clamp on CHO cells stably expressing hERG
# 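Further: peak tail current of the secondary pulse compared with the same well before compound.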
# Sequence of human ether-à-go-go-related gene (hERG) potassium channel (Q12809 whole entry, looked up): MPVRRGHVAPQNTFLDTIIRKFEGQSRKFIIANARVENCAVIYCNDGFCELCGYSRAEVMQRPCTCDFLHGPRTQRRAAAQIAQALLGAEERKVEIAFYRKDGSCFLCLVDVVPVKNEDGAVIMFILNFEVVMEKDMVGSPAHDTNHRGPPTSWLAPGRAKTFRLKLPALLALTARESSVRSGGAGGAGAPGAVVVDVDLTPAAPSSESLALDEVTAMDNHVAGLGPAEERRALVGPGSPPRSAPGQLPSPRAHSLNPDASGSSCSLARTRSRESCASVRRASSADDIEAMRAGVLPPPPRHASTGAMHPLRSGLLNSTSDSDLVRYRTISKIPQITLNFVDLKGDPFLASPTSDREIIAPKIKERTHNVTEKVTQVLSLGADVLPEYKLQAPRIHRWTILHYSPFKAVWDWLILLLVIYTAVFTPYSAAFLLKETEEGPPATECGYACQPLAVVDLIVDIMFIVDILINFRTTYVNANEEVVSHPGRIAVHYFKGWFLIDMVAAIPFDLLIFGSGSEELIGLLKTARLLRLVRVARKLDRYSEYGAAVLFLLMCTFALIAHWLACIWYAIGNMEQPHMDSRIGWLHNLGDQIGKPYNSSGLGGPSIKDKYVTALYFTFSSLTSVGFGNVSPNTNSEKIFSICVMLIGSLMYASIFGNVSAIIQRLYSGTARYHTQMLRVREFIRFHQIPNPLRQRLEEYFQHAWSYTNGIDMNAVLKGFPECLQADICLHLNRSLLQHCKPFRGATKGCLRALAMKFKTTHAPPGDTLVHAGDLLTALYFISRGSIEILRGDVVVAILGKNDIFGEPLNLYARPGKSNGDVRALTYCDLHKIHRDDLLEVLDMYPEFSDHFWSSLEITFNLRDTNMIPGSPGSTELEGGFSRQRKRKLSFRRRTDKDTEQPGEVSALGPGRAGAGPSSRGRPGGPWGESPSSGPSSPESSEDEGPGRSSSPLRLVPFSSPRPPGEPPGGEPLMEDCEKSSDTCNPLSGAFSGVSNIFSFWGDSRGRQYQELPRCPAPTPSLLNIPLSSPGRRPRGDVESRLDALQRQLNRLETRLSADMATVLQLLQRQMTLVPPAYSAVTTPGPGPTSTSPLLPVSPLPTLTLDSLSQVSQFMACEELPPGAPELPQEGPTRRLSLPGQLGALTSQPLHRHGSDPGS
row,SMILES,"hERG current change (%, negative = inhibition) at 10uM [%]"
1,COc1cc2c3nnc(-c4ccc(F)cc4)c-3cn(Cc3cccc(F)c3)c2cc1OC,29.7
2,Cc1ccc(S(=O)(=O)CCc2nnc(NC(=O)COc3cccc(C)c3)s2)cc1,7.2
3,CCOC(=O)c1c(NC(=O)COC(=O)CNC(=O)c2ccco2)sc(C(C)=O)c1C,-7.3
4,CCC(C)NS(=O)(=O)c1ccc(OCC(=O)NCC2CCCO2)cc1 (stereo not drawn),-9.1
5,CCCn1c(SCC(=O)Nc2ccc(Cl)cn2)nnc1C1CC1,-5.64
6,O=S(=O)(NCCCc1ccccc1)c1ccc(Cl)cc1,-34.4
7,CCCN1C(=O)c2cccc3c(N4CCCCC4)ccc(c23)C1=O,15.3
8,CCN1CCN(c2nc(Nc3cccc(F)c3)nc(N)c2[N+](=O)[O-])CC1,-62.6
9,O=c1oc(/C=C/c2ccccc2)nc2sc3c(c12)CCC3,6.49
10,COC(=O)C1=CN(Cc2ccc(OC)c(OC)c2)C=C(C(=O)OC)C1c1cccc(O)c1,7.24
11,COc1ccc(N2C(=O)CC(N3CCCC4CCCCC43)C2=O)cc1 (stereo not drawn),1.28
12,O=C(COc1ccccc1)NNC(=O)c1cccs1,21.3
13,O=C(NCc1ccccn1)Nc1cccc(Cl)c1,-10.6
14,CCC(C)NC(=O)c1ccc(CNS(=O)(=O)c2ccc3c(c2)C(C)(C)C(=O)N3C)cc1 (stereo not drawn),13.1
15,O=C(CSc1nnnn1C1CC1)N1CCN(Cc2ccccc2F)CC1,3.94
16,CN(C(=O)CN1C(=O)/C(=C/c2ccc(F)cc2)SC1=S)C1CCS(=O)(=O)C1 (stereo not drawn),-5.92
17,COc1ccc(N2CCN(S(=O)(=O)c3ccc4c(c3)NC(=O)CS4)CC2)cc1,16.8
18,CCOC(CNC(=O)C(=O)Nc1cc2c3c(c1)CC(=O)N3CCC2)OCC,5.22
19,COc1ccc(OC)c(NC(=O)CSc2ccccc2)c1,-4.87
20,COc1ccc(CCN2C(=O)CC(Sc3ncccc3C(=O)O)C2=O)cc1OC (stereo not drawn),10.2
21,N#Cc1nc(COc2ccc(Cl)cc2)oc1NCc1ccc2c(c1)OCO2,10.8
22,O=C(Nc1nc2ccccc2[nH]1)C1CCCO1 (stereo not drawn),6.66
23,CCOc1ccc(NCc2cccn2-c2nnc(N3CCC(C(=O)NCCCN4CCCCC4C)CC3)s2)cc1 (stereo not drawn),-53.8
24,Fc1ccc2[nH]c3c(NCCN4CCOCC4)ncnc3c2c1,-16.8
